Experimental data: US20090196918A1, “Liposomal formulations of hydrophobic lactone drugs in the presence of metal ions” (University of Kentucky Research Foundation, priority 2008, published 2009)

Tested on: Non-small cell lung cancer (H460) xenografts
Assay: Efficacy of DB-67 in non-small cell lung cancer (H460) xenografts in mice
Conditions: nu/nu mice, protracted intravenous dosing of nonliposomal DB-67 (FIGS. 6 and 7)

CC[C@@]1(O)C(=O)OCc2c1cc1n(c2=O)Cc2c-1nc1ccc(O)cc1c2[Si](C)(C)C(C)(C)C [DB-67, 7-t-butyldimethylsilyl-10-hydroxycamptothecin]
treatment of non-small cell lung cancer (H460): tumor volume and survival: effective
